Where “and” joins values, the source holds several entries; their conditions need not be identical. Identical values can stand only once.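 Grown in 96-well plates, cells were treated for 48 hours with each compound at five concentrations. Insufficient inhibition: endpoint recorded as highest concentration tested. Abbreviation: GI50, concentration required for 50% inhibition of growth. TGI: concentration producing complete growth inhibition.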
test system: NCI-H322M lung; assay: inhibition of tumour cell growth, NCI panel, 48 h

With `COc1cc(C2c3cc4c(cc3OC(N3CCCC3)C2C)OCO4)cc(OC)c1O` (stereo not drawn) as the compound, how does the TGI read?
Its TGI is greater than 100 µM.

For `Cn1c(=O)c2c(nc(Nc3cc(=O)[nH]c(=O)[nH]3)n2Cc2ccccc2)n(C)c1=O`, which GI50 is on record?
Its GI50 is greater than 100 µM.

What about the TGI of the same compound?
Its TGI is greater than 100 µM.

Which results are given for `CCC[CH2][Sn]([CH2]CCC)([CH2]CCC)[O]C(=O)CC`?
GI50: 0.175 µM; TGI: 0.379 µM

How did the TGI turn out when `Cc1cccc(-c2nc3ccc([N+](=O)[O-])cc3c(=O)o2)c1` was run?
The TGI was greater than 100 µM.

For `COC(=O)c1cc2c(cc1O)[C@@H](NC(C)=O)CCc1cc(OC)c(OC)c(OC)c1-2`, which GI50 is on record?
Its GI50 is 0.059 µM.

And the TGI?
The TGI was greater than 100 µM.

Which TGI does the source give for `CC1(CCCO)CCCCCC(C)(CCCO)C1=O` (stereo not drawn) here?
The TGI was greater than 100 µM.

Which GI50 does the source give for `CC(=O)O.CC(=O)O.CC(=O)O.CC(=O)O.CC(=O)O.CC(=O)O.O.[Ti].[Ti]` here?
Its GI50 is greater than 100 µM.

And the TGI?
Its TGI is greater than 100 µM.

With `COC(=O)Cc1cc(O)c(C/C=C(\C)CC/C=C(\C)C(O)C(=O)C=C(C)C)cc1O` (stereo not drawn) as the compound, how does the TGI read?
Its TGI is greater than 100 µM.

`S=C(NCc1ccccc1)c1nc[nH]c1C(=S)NCc1ccccc1` was tested. Which TGI did it give?
Its TGI is 21.6 µM.

What does the source list for `O=[N+]([O-])c1ccc(C=C2C(Cl)=C(Cl)C(Cl)=C2Cl)cc1`?
GI50: 2.43 µM; TGI: 8.51 µM

`O=[N+]([O-])c1ccc(Cl)c(C=NC23CC4CC(CC(C4)C2)C3)c1` was tested. Which TGI did it give?
Its TGI is greater than 10 µM.

For `CC(=O)Nc1cc(C(=O)Nc2cc(C(=O)N3CC(CCl)c4c3cc(N)c3ccccc43)nn2C)nn1C` (stereo not drawn), which TGI is on record?
Its TGI is 0.9 µM.

How did the GI50 turn out when `C[As](C)SC1OC(CO)C(O)C1O` (stereo not drawn) was run?
Its GI50 is 6.01 µM.

What about the TGI of the same compound?
The TGI was 18.3 µM.

Which TGI does the source give for `CC(=O)OC1CCC2(C)C3CCC4(C)C(c5ccc(=O)oc5)CC5OC54C3CCC2(O)C1` (stereo not drawn) here?
Its TGI is 4.71 µM.

How did the TGI turn out when `CNn1c(-c2ccccc2)n[nH]c1=O` was run?
The TGI was greater than 100 µM.

For `COc1cc(C[S+]2CCCC2)c(SC)cc1C[S+]1CCCC1`, which TGI is on record?
The TGI was greater than 100 µM.

How did the GI50 turn out when `CCOc1nc(-c2ccccc2)cc2c(O)c(-c3nnco3)[nH]c(=O)c12` was run?
The GI50 was 5.37 µM.

And the TGI?
The TGI was greater than 100 µM.

Which results are given for `CC[C@]12C=CCN3CC[C@@]4(c5ccc(OC)cc5N(C)[C@H]4[C@@](O)(C(=O)OC)[C@@H]1OC(=O)CCC[P+](c1ccccc1)(c1ccccc1)c1ccccc1)[C@@H]32`?
GI50: 2.29 µM and 3.26 µM; TGI: 8.88 µM and 14.1 µM

With `NNC(N)Nc1ccccc1` (stereo not drawn) as the compound, how does the TGI read?
The TGI was greater than 100 µM.

Which results are given for `C/C(=C\CCc1ccoc1)CC/C=C(\C)CCCC1=CC(=O)OC1`?
GI50: 21.1 µM; TGI: > 100 µM

For `COC(C)(C)C1=CCC(C)CC1` (stereo not drawn), which TGI is on record?
The TGI was greater than 100 µM.

With `COC(=O)c1cc2c3ccccc3n(C(C)=O)c2cn1` as the compound, how does the TGI read?
Its TGI is greater than 100 µM.

`CCSc1n/c(=C\c2ccco2)c2nnnn12` was tested. Which TGI did it give?
Its TGI is greater than 100 µM.

How did the TGI turn out when `CCCCCN=Cc1c(O)c(O)c(C(C)C)c2cc(C)c(-c3c(C)cc4c(C(C)C)c(O)c(O)c(C=NCCCCC)c4c3O)c(O)c12` was run?
Its TGI is greater than 100 µM.

What does the source list for `CC(C)c1ccc(Nc2ccc3c(OCCCN4CCN(C)CC4)cccc3n2)cc1`?
GI50: 11 µM; TGI: 23.6 µM

For `c1ccc(N=C2SC(=NC3CCCCC3)N(C3CCCCC3)C2=Nc2ccccc2)cc1`, which TGI is on record?
The TGI was greater than 100 µM.

Which TGI does the source give for `COC(=O)C1=C(c2ccc3c(c2)OCO3)O[C@H](c2cc(OC)c(OC)c(OC)c2)[C@H]1COC(C)=O` here?
Its TGI is greater than 100 µM.

How did the TGI turn out when `CCOC(CCNCC(OCC)OCC)OCC` was run?
The TGI was greater than 10 µM.

`O=c1n(CC2CO2)c(=O)n(CC2CO2)c(=O)n1CC1CO1` (stereo not drawn) was tested. Which GI50 did it give?
Its GI50 is 50.1 µM and 17.1 µM.

What about the TGI of the same compound?
The TGI was 119 µM and 41.3 µM.

For `C[C@]12C=CC(=O)C=C1CC[C@H]1[C@@H]3C[C@@H](O)[C@](O)(C(=O)CO)[C@@]3(C)C[C@H](O)[C@@]12F`, which TGI is on record?
The TGI was greater than 100 µM.

With `C[C@]12CC[C@H](O)CC1=CC[C@@H]1[C@@H]2CC[C@]2(C)C(=O)[C@@H](N3CCOCC3)C[C@@H]12` as the compound, how does the TGI read?
Its TGI is greater than 100 µM.

`O=C(CC(=O)Nc1cccc(C(=O)O)c1)Nc1cccc(C(=O)O)c1` was tested. Which TGI did it give?
The TGI was greater than 100 µM.

How did the TGI turn out when `COCCOCc1nc(C#N)c(N)o1` was run?
The TGI was greater than 100 µM.

With `O=S(O)CCCCSSCC(O)C(O)CSSCCCCS(=O)O` (stereo not drawn) as the compound, how does the TGI read?
The TGI was greater than 100 µM.

`CCCCCCCCCC/C=C/CC(=O)SCCNC(=O)CCNC(=O)[C@@H](O)C(C)(C)COP(=O)(O)OP(=O)(O)OCC1OC(n2cnc3c(N)ncnc32)C(O)C1OP(=O)(O)O` (stereo partly drawn) was tested. Which TGI did it give?
Its TGI is greater than 10 µM.

With `S=C(c1c[nH]c2ccccc12)N1CCOCC1` as the compound, how does the TGI read?
The TGI was greater than 100 µM.

`O=C(/C=C/c1ccc(O)cc1)OC[C@@H](O)COC1OC(CO)C(O)C(O)C1O` (stereo partly drawn) was tested. Which TGI did it give?
Its TGI is greater than 100 µM.

What does the source list for `Cc1c2cccnc2c(C)c2c1c1cc(CO)ccc1n2C`?
GI50: 1.81 µM; TGI: 13.5 µM

How did the TGI turn out when `CC(C)(C)OC(=O)NCC(=O)OCc1ccccc1` was run?
The TGI was greater than 100 µM.

`Cc1ccc(Cl)cc1Nc1nc(C(F)(F)F)ccc1C(=O)N1CCN(c2ccc(F)cc2)CC1` was tested. Which GI50 did it give?
The GI50 was 11.7 µM.

And the TGI?
Its TGI is 29.3 µM.

Which results are given for `C[C@H]1c2cccc(O)c2C(O)=C2C(=O)[C@]3(O)C(O)=C(C(N)=O)C(=O)[C@@H](N(C)C)[C@@H]3[C@@H](O)[C@@H]21`?
GI50: 3 µM; TGI: 12.5 µM

`O=C1NC(=Nc2ccccc2)S/C1=C\c1ccc2ncccc2c1` was tested. Which GI50 did it give?
Its GI50 is greater than 25 µM.

And the TGI?
The TGI was greater than 25 µM.

With `CC(=O)Oc1cccc2c(/C=N/NC(N)=S)ncc(C)c12` as the compound, how does the TGI read?
The TGI was 12.5 µM.

With `O=C1N=c2ccccc2=C1c1c(O)[nH]c2ccccc12` as the compound, how does the TGI read?
The TGI was greater than 100 µM.

Which GI50 does the source give for `O=C(c1ccccc1)c1cc(Cl)ccc1OCCCCN1CCN(CCCCOc2ccc(Cl)cc2C(=O)c2ccccc2)CC1` here?
Its GI50 is 8.47 µM.

What about the TGI of the same compound?
Its TGI is 21.4 µM.

Which results are given for `C=C(C)[C@@]12OC3(/C=C/C=C/CCCCC)O[C@@H]1[C@@H]1[C@@H]4O[C@]4(CO)[C@@H](O)[C@]4(O)C(=O)C(C)=C[C@H]4[C@@]1(O3)[C@H](C)[C@H]2OC(=O)c1ccccc1`?
GI50: 1.94 µM; TGI: 5.14 µM
